# Data taken from PubChem BioAssay (Tox21).
# “And” between values parts separate entries of the source, which are not always exact repeats. Equal entries are not always repeated. Inconclusive results, whose numbers are uncertain, are shown with a selection of clear calls. Where the call is inconclusive, the potency comes from a doubtful curve fit. The source made the active and inactive calls. Unless noted, the call rests on the fitted dose curve; in most records, active means well fitted curve in the direction sought with a large enough effect in the repeat runs; inconclusive means weak or mixed curves; inactive means no such curve, though single readings can be large; an effect the other way counts as inactive or inconclusive.
# System: not listed separately
# Assay: qHTS assay for small molecule activators of the heat shock response signaling pathway - cell viability counter screen (AID 743209); further: nearly all actives have a fitted effect of over 50% in size
# Settings: HSE-bla HeLa viability, CellTiter-Glo luminescence, 5 h; activity change, negative = cytotoxicity: at 62.6 µM (top of the series)
# Procedure, shortened: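 Luminescence from CellTiter-Glo, added after the beta-lactamase FRET read, gave the viability signal. Cells were HSE-bla HeLa treated with DMSO-dissolved compounds for 5 h at 37 C following overnight plating.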
# On the % scale 0 is the no-effect control and ±100 the full control effect; potency means the concentration at half of the fitted maximal effect; tags describe the fitted curve by direction and shape or compound fluorescence and quenching.
row,SMILES,Potency
1,CC(C)(C)[C@@H](O)[C@@H](Cc1ccc(Cl)cc1)n1cncn1,inactive
2,Cc1ccc(/C=N/n2c(-c3ccccc3)csc2=S)cc1,"inconclusive: 0.0422 µM [rising, full curve, poor fit]"
3,COc1ccc2c(c1)c(CC(=O)O)c(C)n2C(=O)c1ccc(Cl)cc1,"inconclusive: 0.0047 µM [rising, full curve]"
4,Cc1ccccc1C(OCCN(C)C)c1ccccc1 (stereo not drawn),inactive

# System: not listed separately
# Assay: qHTS assay for small molecule activators of the heat shock response signaling pathway (AID 743210; active means well fitted activation curve with a large enough effect in the signal ratio in the repeat runs, with a control signal flat, not every such curve was filed as active; inconclusive means weak or mixed curves; the % refers to the signal ratio;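 on activation: HeLa cells with beta-lactamase reporter driven by heat shock elements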)
# Settings: HeLa HSE-bla reporter, beta-lactamase ratio, 5 h; activation: at 62.6 µM (top of the series) unless noted
# Procedure, shortened: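 HeLa HSE-bla cells, overnight plating; cpd in DMSO 5 h, 37 C; LiveBLAzer B/G FRET substrate 2.5 h RT; fluorescence intensity read.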
row,SMILES,Potency
1,CC1=CC(C)(C)Nc2ccccc21,"inconclusive: 60.1 µM [falling, single point]"
2,Cc1ccc(/C=N/n2c(-c3ccccc3)csc2=S)cc1,"inconclusive: 13.3 µM [falling, partial curve, poor fit]"
3,C(/C=C/C=C/Nc1ccccc1)=Nc1ccccc1,inactive
4,COc1ccc2c(c1)c(CC(=O)O)c(C)n2C(=O)c1ccc(Cl)cc1,"inconclusive: 33.5 µM [activator, single point]"
5,CCN(CC)CCOC(=O)C(c1ccccc1)C1CCCCC1 (stereo not drawn),inconclusive: 33.5 µM [activator]

# Target: Peroxisome proliferator-activated receptor delta (Homo sapiens) (UniProt Q03181)
# UniProt Q03181, sequence (Q03181 whole entry, looked up): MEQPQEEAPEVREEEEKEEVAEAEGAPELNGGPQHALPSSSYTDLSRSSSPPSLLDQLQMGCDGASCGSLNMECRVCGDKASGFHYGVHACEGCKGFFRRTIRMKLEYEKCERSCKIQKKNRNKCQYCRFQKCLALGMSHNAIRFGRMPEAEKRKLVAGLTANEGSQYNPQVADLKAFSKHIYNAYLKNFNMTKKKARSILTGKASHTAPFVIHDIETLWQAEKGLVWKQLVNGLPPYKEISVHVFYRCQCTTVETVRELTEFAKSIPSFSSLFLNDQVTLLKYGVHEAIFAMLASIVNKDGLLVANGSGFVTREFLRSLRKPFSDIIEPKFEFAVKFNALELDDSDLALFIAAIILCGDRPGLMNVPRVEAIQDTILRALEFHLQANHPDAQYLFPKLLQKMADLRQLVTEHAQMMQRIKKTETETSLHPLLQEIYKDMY
# Assay: qHTS assay to identify small molecule agonists of the peroxisome proliferator-activated receptor delta (PPARd) signaling pathway (AID 743212; calls by dose curve;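 further: HEK293H cells with PPARd UAS beta-lactamase reporter GeneBLAzer system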)
# Settings: HEK293H PPARd-UAS-bla, beta-lactamase FRET ratio, 17 h; activation: at 62.6 µM (top of the series) unless noted
# Procedure, shortened: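 HEK293H PPARd-bla cells; 5 h preincubation 37 C/5% CO2; compound (DMSO) 37 C; LiveBLAzer B/G FRET substrate 2 h RT; fluorescence intensity.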
SMILES,Potency,activation
CC1=CC(C)(C)Nc2ccccc21,inactive,–
C(/C=C/C=C/Nc1ccccc1)=Nc1ccccc1,–,inconclusive: -1.62%
OCc1ccccn1,inactive,–
CCN(CC)CCOC(=O)C(c1ccccc1)C1CCCCC1 (stereo not drawn),"inconclusive: 11.9 µM [rising, partial curve, poor fit]",–

# System: not listed separately
# Assay: qHTS assay to identify small molecule antagonists of the peroxisome proliferator-activated receptor delta (PPARd) signaling pathway - cell viability counter screen (AID 743213); further: nearly all actives have a fitted effect of over 50% in size
# Settings: PPARd-bla HEK293H viability, CellTiter-Glo luminescence, 17 h; viability change, negative = cytotoxic: at 62 µM (top of the series) unless noted
# Procedure, shortened: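 HEK293H PPARd UAS-bla cells, 5 h pre-incubation, compound + L165041 300 nM final, 17 h 37 C; B/G FRET substrate 2 h RT; then CellTiter-Glo 30 min RT, luminescence.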
row,SMILES,Potency
1,CC1=CC(C)(C)Nc2ccccc21,"inconclusive: 1.31 µM [cytotoxic, full curve, poor fit]"
2,CC(C)(C)[C@@H](O)[C@@H](Cc1ccc(Cl)cc1)n1cncn1,"inconclusive: 2.19 µM [cytotoxic, single point]"
3,CN(C)C(=O)NC1(c2ccccc2)CCN(CCC[C@]2(c3ccc(Cl)c(Cl)c3)CCCN(C(=O)c3ccccc3)C2)CC1,"inconclusive: 11.7 µM [cytotoxic, partial curve, poor fit]"
4,Cc1ccccc1C(OCCN(C)C)c1ccccc1 (stereo not drawn),"inconclusive: 27.5 µM [cytotoxic, partial curve, poor fit] and inconclusive: 13.8 µM [cytotoxic, full curve] and inactive"
5,CCN(CC)CCOC(=O)C(c1ccccc1)C1CCCCC1 (stereo not drawn),"inconclusive: 8.41 µM [cytotoxic, partial curve, poor fit]"
